# The whole screen tested about 150,000 compounds, of which about 6,500 (4.3%) were called active. About 12% were inconclusive and are not listed. Calls come from the whole dose curve; as a rule, active = well fitted inhibition curve with a large enough effect (not every such curve was filed as active); inconclusive = small, poorly fitted or top-dose-only effect, or another doubt; inactive = no such curve, though single readings can be large or run the other way. Only a part is listed here, and it is no random draw. The source holds several records for some structures; these can differ, active in one and inactive in another.
# Target: 15-hydroxyprostaglandin dehydrogenase [NAD(+)] (Homo sapiens) (UniProt P15428)
# UniProt P15428, sequence (P15428 whole entry, looked up): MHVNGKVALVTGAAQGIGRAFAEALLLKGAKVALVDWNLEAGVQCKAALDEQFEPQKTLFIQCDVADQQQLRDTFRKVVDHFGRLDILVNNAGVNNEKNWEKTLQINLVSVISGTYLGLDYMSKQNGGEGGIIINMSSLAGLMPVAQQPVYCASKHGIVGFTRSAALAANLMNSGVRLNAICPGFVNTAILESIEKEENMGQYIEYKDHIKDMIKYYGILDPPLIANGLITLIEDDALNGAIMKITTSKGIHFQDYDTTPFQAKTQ
# Experiment: qHTS Assay for Inhibitors of HPGD (15-Hydroxyprostaglandin Dehydrogenase)
# Settings: purified HPGD, NADH fluorescence kinetic, PGE2 substrate; activity change, negative = inhibition: active compounds read low
# Source text: Human 15-Hydroxyprostaglandin dehydrogenase (HPGD) catalyzes the inactivation of prostaglandin E2, and plays a major role in cancer biology by antagonizing the oncogenic potential of cyclooxygenase type 2 (COX2). Assays are available, based on absorbance/fluorescence increase of NADH with the substrate 15-OH prostaglandin E2. References 1. Myung SJ, Rerko RM, Yan M, Platzer P, Guda K, Dotson A, Lawrence E, Dannenberg AJ, Lovgren AK, Luo G, Pretlow TP, Newman RA, Willis J, Dawson D, Markowitz SD. 15-Hydroxyprostaglandin dehydrogenase is an in vivo suppressor of colon tumorigenesis. […] 2. Yan M, Rerko RM, Platzer P, Dawson D, Willis J, Tong M, Lawrence E, Lutterbaugh J, Lu S, Willson JK, Luo G, Hensold J, Tai HH, Wilson K, Markowitz SD. 15-Hydroxyprostaglandin dehydrogenase, a COX-2 oncogene antagonist, is a TGF-beta-induced suppressor of human gastrointestinal cancers. Proc Natl Acad Sci U S A. 2004 Dec 14;101(50):17468-73. 3. Yang L, Amann JM, Kikuchi T, Porta R, Guix M, Gonzalez A, Park KH, Billheimer D, Arteaga CL, Tai HH, Dubois R, Carbone DP, Johnson DH. Inhibition of Epidermal Growth Factor Receptor Signaling Elevates 15-Hydroxyprostaglandin Dehydrogenase in Non-Small-Cell Lung Cancer. Cancer Res. 2007 Jun 15;67(12):5587-5593. Inhibition of HPGD activity was screened by utilizing prostaglandin as an electron donor and NAD+ as an electron acceptor/cofactor. An increase in the fluorescence intensity due to conversion of NAD+ to NADH was used to measure the enzyme activity. NIH Chemical Genomics Center [NCGC] Structural Genomics Consortium [SGC]
# Buffer: 50 mM Tris-HCl, 0.01% Tween 20, pH 8. Enzyme Buffer: 50 mM Tris-HCl, 0.5 mM NAD+ and 0.01% Tween 20, pH 8. Reagents/Controls: Buffer in columns 3 and 4 as negative control (no enzyme). Substrate/cofactor solution: 1 mM NAD+ and 30 uM prostaglandin (Sigma, prostaglandin E2, # P5640) final concentrations dispensed throughout the plate. Enzyme: 20 nM HPGD final concentration in columns 1, 2, 5-48. Column 1 and 2 is neutral (100% activity). A titration of control inhibitor GW5074 (G6416 Sigma-Aldrich, St. Louis, MO) top concentration 10 mM in DMSO, then 1:2 dilution for a total of 16 concentrations in duplicate) was pin-transferred into column 2. Assay Steps: Three uL of enzyme were dispensed to 1536-well Greiner black solid bottom plates. Compounds and control inhibitor (23 nL) were transferred via Kalypsys PinTool. The plates were incubated for 15 min at room temperature, and then 1 uL of substrate/cofactor solution was added to start the reaction. The plates were immediately transferred to and read 5 times every 30 seconds on ViewLux High-throughput CCD imager (Perkin-Elmer) using 360 nm excitation and 450 nm emission fluorescence protocol. The fluorescence intensity difference between the last and the first time points was used to compute reaction progress.
# % is set by controls: 0 for no effect and ±100 for the full control effect; potency is the fitted concentration of half-maximal effect.
SMILES,"activity change, negative = inhibition",Potency
N#C/C(=C\c1ccc(O)c(O)c1)C(=O)Nc1ccccc1,inactive: -18.3%,
CCN(CC)C(=O)c1sc(NC(=O)c2ccc(C)c([N+](=O)[O-])c2)c(C#N)c1C,,active: 28.2 µM
NC(=O)/C(=N\OC(=O)c1ccco1)c1nc(-c2ccc(Br)cc2)cs1,,active: 12.6 µM
Cc1ccc(/C=N/n2c(C3CCCCC3)n[nH]c2=S)s1,,active: 11.2 µM
Cc1c(Cc2ccccc2)c(=O)oc2cc(OCC(=O)c3ccccc3)ccc12,inactive: 115%,
Cc1ccc(-c2c(C#N)c(N)nc3c2CCCC3)s1,inactive: 62.3%,
CC(=O)c1cccc(NC(=S)NC(=O)CC(C)C)c1,,active: 15.8 µM
COCCOC(=O)C1=C(C)NC(SCC(=O)NC(C)(C)C)=C(C#N)C1c1ccco1 (stereo unspecified),,active: 15.8 µM
O=C(/C=C/c1ccc(O)c(O)c1)OC(Cc1ccc(O)c(O)c1)C(=O)O (stereo unspecified),inactive: -15.1%,
COc1ccc(C(NC(=O)/C=C\c2ccco2)c2ccc(OC)c(OC)c2)cc1 (stereo unspecified),inactive: -20.1%,
Cc1nc2ccc(NC(=O)c3ccc(F)c(S(=O)(=O)N4CCOCC4)c3)cc2s1,inactive: 781%,
N#C/C(=C\C=C\c1ccccc1)C(=O)Nc1ccccc1,inactive: -9.48%,
Clc1ccc(-c2nnc(-c3ccc(Br)o3)o2)c(Cl)c1,inactive: 48.3%,
Cc1cc(=O)c2cc(Cl)ccc2[nH]1,inactive: -13.5%,
CCOC(=O)C1CCCN(C(=O)CC(c2ccccc2)c2ccccc2)C1 (stereo unspecified),,active: 28.2 µM
COc1cc(NS(=O)(=O)c2ccc(NC(=S)NC(=O)c3sc4ccccc4c3Cl)cc2)nc(OC)n1,,active: 25.1 µM

# Source: PubChem BioAssay AID894 (National Center for Advancing Translational Sciences (NCATS), 2007)
